Experimental data reported in article PMC7618510, “The accessory protein MRAP2 directly interacts with melanocortin-3 receptor to enhance signaling” (Science signaling, 2025).

Biological target: T1, HA-Halo-MRAP2 (human, UniProt Q96G30 1-205, CA-Sulfo646 dye on the Halo tag)
T1 construct: melanocortin-2 receptor accessory protein 2 (MRAP2), human; S14 and the UBIRA repository; also called ss-HA-Halo-MRAP2; source: HEK293 (AD-293), transiently transfected, in lysate (LMNG-CHS); not shown: HA, N-terminal, kept; Halo, N-terminal, kept
T1 sequence (looked up): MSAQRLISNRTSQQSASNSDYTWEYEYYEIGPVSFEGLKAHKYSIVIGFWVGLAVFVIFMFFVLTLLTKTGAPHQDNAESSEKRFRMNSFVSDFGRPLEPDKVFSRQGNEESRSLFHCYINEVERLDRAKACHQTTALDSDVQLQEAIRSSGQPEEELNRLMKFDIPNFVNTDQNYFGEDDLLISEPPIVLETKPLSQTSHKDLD
Test: single-molecule pull-down (SiMPull) with photobleaching step counting; two colours: lysate of HEK293 cells cotransfected with 300 ng HA-Halo-tagged and 600 ng FLAG-CLIP-tagged plasmid, labelled at the surface with CA-Sulfo646 and BC-DY547, lysed in 0.5% LMNG/0.05% CHS; HA-tagged protein immobilised on HA antibody; co-localised spots and bleaching steps counted by TIRF
Conditions: partners not purified

B1: FLAG-CLIP-MC3R (receptor, human, UniProt P41968 1-323, looked up)
chain: MNASCCLPSVQPTLPNGSEHLQAPFFSNQSSSAFCEQVFIKPEVFLSLGIVSLLENILVILAVVRNGNLHSPMYFFLCSLAVADMLVSVSNALETIMIAIVHSDYLTFEDQFIQHMDNIFDSMICISLVASICNLLAIAVDRYVTIFYALRYHSIMTVRKALTLIVAIWVCCGVCGVVFIVYSESKMVIVCLITMFFAMMLLMGTLYVHMFLFARLHVKRIAALPPADGVAPQQHSCMKGAVTITILLGVFIFCWAPFFLHLVLIITCPTNPYCICYTAHFNTYLVLIMCNSVIDPLIYAFRSLELRNTFREILCGCNGMNLG
modifications: BC-DY547 (CLIP-surface 547) dye on the CLIP tag
notes: melanocortin-3 receptor (MC3R), human; S14 and the UBIRA repository; also called ss-FLAG-CLIP-MC3R; source: HEK293 (AD-293), transiently transfected, in lysate (LMNG-CHS); not shown: FLAG, N-terminal, kept; CLIP, N-terminal, kept
stoichiometry N: 1 MRAP2 per MC3R
